{"source": "PubChem BioAssay AID1476", "about": "(National Center for Advancing Translational Sciences (NCATS), 2009)", "note": "The whole screen tested about 200,000 compounds, of which about 4,500 (2.2%) were called active. Inconclusive results, whose numbers are uncertain, are shown with a selection of clear calls. The call rests on the fitted dose curve; in most records, active means well fitted inhibition curve with a large enough effect; inconclusive means small, poorly fitted or top-dose-only effect, or effect the other way; inactive means flat fitted curve, though single readings scatter. Where the call is inconclusive, the potency comes from a doubtful curve fit. Potency means the concentration at half of the fitted maximal effect; tags describe the fitted curve by direction and shape."}
{"biological_target": "Cruzipain (Trypanosoma cruzi) (UniProt P25779)", "sequence (P25779 whole entry, looked up)": "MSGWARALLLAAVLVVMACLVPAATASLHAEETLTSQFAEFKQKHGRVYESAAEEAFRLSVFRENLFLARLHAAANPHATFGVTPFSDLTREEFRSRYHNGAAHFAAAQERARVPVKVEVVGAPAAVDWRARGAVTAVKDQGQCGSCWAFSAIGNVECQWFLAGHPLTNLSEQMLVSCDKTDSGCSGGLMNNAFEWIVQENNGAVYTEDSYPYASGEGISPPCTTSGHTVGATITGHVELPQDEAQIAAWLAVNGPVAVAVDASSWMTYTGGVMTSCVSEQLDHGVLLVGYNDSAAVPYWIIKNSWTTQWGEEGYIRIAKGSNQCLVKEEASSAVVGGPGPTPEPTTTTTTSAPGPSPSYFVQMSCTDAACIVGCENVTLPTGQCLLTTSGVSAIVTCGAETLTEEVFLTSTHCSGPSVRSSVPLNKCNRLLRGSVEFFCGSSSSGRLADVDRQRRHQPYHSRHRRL", "test": "qHTS Assay for Promiscuous and Specific Inhibitors of Cruzain (without detergent); further: nearly all actives have a fitted effect of over 40% in size;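 on max response, negative = inhibition: plate controls were enzyme without inhibitor for no effect and buffer without enzyme for full effect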", "details": "purified cruzain, Z-FR-AMC fluorescence, no detergent", "how_it_was_run": "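Detergent-free condition (0.00005% Triton X-100) in acetate buffer pH 5.5 with DTT. 1.5 nM enzyme and compound were pre-mixed 15 min, then 2 uM Z-FR-AMC substrate added; reaction progress from fluorescence change between first and third reads (60 s).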"}
{"smiles": "CCCOc1ccc(CN(C(=O)c2nc(SC(C)C)ncc2Cl)C2CCS(=O)(=O)C2)cc1", "note": "(stereo not given)", "Potency": "inconclusive: 25.1 µM [activator, partial curve]"}
{"smiles": "O=C(COC(=O)CCc1nc2ccccc2s1)Nc1ccc(S(=O)(=O)N2CCOCC2)cc1", "Potency": "inconclusive: 31.6 µM [activator, single point]"}
{"smiles": "c1ccc(-c2cnn3nnnc3n2)cc1", "Potency": "inconclusive: 0.126 µM [inhibitor, full curve, poor fit]"}
{"smiles": "C/C(=N\\NC(=S)NC(C)C)c1ccc(-n2ccnc2)cc1", "Potency": "inconclusive: 15.8 µM [inhibitor, partial curve, poor fit]"}
{"smiles": "Cc1ccc(-n2c(SCC(=O)Nc3cccc(F)c3)nc3c(oc4ccccc43)c2=O)cc1C", "Potency": "active: 12.6 µM"}
{"smiles": "O=c1oc2ccccc2cc1-c1nc(-c2cccs2)cs1", "Potency": "inconclusive: 31.6 µM [inhibitor, single point]"}
{"smiles": "Cc1ccc(C)c2[nH]c(=O)c(CN(Cc3cccs3)C(=S)NCc3ccco3)cc12", "Potency": "active: 20 µM"}
{"smiles": "Cc1ccc(S(=O)(=O)c2nc(-c3ccco3)oc2SCc2ccccc2Cl)cc1", "Potency": "inconclusive: 39.8 µM [inhibitor, single point]"}
{"smiles": "CCN1c2cc(C)ccc2-n2cccc2C12CCN(C(=O)Nc1cc(OC)c(OC)c(OC)c1)CC2", "Potency": "inconclusive: 31.6 µM [activator, single point]"}
{"smiles": "CC(C)(C)c1ccc(-c2csc(NC(=O)CN3C(=O)NC4(CCCCC4)C3=O)n2)cc1", "Potency": "active: 7.94 µM"}
{"smiles": "COc1cccc(-n2nnc3c(=O)n(CC(=O)N4CCC(Cc5ccccc5)CC4)cnc32)c1", "Potency": "inconclusive: 31.6 µM [inhibitor, single point]"}
{"smiles": "O=C(NCCC1=CCCCC1)c1ccc2c(c1)N(Cc1ccccc1F)C(=O)c1ccccc1S2(=O)=O", "Potency": "inconclusive: 39.8 µM [inhibitor, single point]"}
{"smiles": "CCOC(=O)C(C(C)=O)c1c(Br)c(O)c(O)c2c(C(=O)c3ccc(C)cc3)coc12", "note": "(stereo not given)", "Potency": "inconclusive: 31.6 µM [inhibitor, single point]"}
{"smiles": "CCc1cccc(N2C(=O)CS(=O)(=O)C23C(=O)N(Cc2ccc(F)cc2)c2ccc(C)cc23)c1", "note": "(stereo not given)", "Potency": "inconclusive: 1.26 µM [inhibitor, partial curve]"}
{"smiles": "CCC(=O)Nc1ccc(-c2csc(NNC(C)=O)n2)cc1", "max response, negative = inhibition": "inactive: -9.15%"}
{"smiles": "COc1cc(-c2nnc(SCC(=O)c3ccccc3)o2)cc(OC)c1OC", "Potency": "inconclusive: 31.6 µM [activator, partial curve]"}
{"smiles": "COc1cc(S(=O)(=O)N2CCC(c3nc4ccccc4s3)CC2)ccc1S(=O)(=O)NC1CCCC1", "Potency": "inconclusive: 39.8 µM [inhibitor, single point]"}
{"smiles": "CCOC(=O)c1cnc2c(cnn2C)c1NCCC(O)C(F)(F)F", "note": "(stereo not given)", "Potency": "inconclusive: 25.1 µM [activator, partial curve]"}
{"smiles": "CC(C)Sc1ncc(Cl)c(C(=O)N(Cc2ccc(F)cc2)C2CCS(=O)(=O)C2)n1", "note": "(stereo not given)", "Potency": "inconclusive: 39.8 µM [activator, single point]"}
{"smiles": "COc1ccc(/C=C(\\NC(=O)c2cccs2)C(=O)Nc2ccc(C)cc2)cc1OC", "Potency": "inconclusive: 39.8 µM [activator, single point]"}
{"smiles": "N#Cc1ccccc1Sc1ccccc1C(=O)OCC(=O)N1CCN(C(=O)c2ccco2)CC1", "Potency": "inconclusive: 39.8 µM [activator, single point]"}
{"smiles": "Cc1cc2nn(-c3cccc4ccccc34)nc2cc1NC(=O)c1cccs1", "Potency": "inconclusive: 31.6 µM [inhibitor, single point]"}
{"smiles": "CC(C)NC(=O)NC(=O)COC(=O)c1ccc(F)cc1F", "max response, negative = inhibition": "inactive: 2.01%"}
{"smiles": "CCc1cccc(NC(=O)Cn2cc(C(=O)c3ccncc3)c(=O)c3cc(C)c(C)cc32)c1", "max response, negative = inhibition": "inactive: 27.6%"}
{"smiles": "O=C(NCc1ccc(Cl)cc1)c1ccc2c(c1)NC(=O)C(CS(=O)(=O)Cc1ccccc1Cl)N2", "note": "(stereo not given)", "Potency": "active: 25.1 µM"}
{"smiles": "Cc1cccc(C)c1Nc1nnc(SCC(=O)Nc2sccc2C#N)s1", "Potency": "inconclusive: 31.6 µM [inhibitor, single point]"}
{"smiles": "O=C(Nc1c(C(=O)Nc2cccc(C(F)(F)F)c2)oc2ccccc12)c1cc(=O)c2ccccc2o1", "max response, negative = inhibition": "inactive: 1.95%"}
{"smiles": "O=C(O)CCn1cnc2onc(-c3ccccc3Cl)c2c1=O", "max response, negative = inhibition": "inactive: -14.6%"}
{"smiles": "Cc1cccn2c(=O)cc(COc3ccc(NC(=O)c4cccc(F)c4)cc3)nc12", "max response, negative = inhibition": "inactive: -2.13%"}
{"smiles": "O=[N+]([O-])c1ccc(N2CCN(c3ccc(O)cc3)CC2)c(Cl)c1", "Potency": "inconclusive: 31.6 µM [inhibitor, single point]"}
{"smiles": "COCc1cc(=O)[nH]c(/N=C(\\N)Nc2ccc(Oc3ccccc3)cc2)n1", "Potency": "inconclusive: 25.1 µM [activator, single point]"}
{"smiles": "CN(Cc1cccc(Cl)c1Cl)c1ccc(S(=O)(=O)N2CCCCC2)cc1[N+](=O)[O-]", "Potency": "inconclusive: 39.8 µM [inhibitor, single point]"}
{"smiles": "O=C(NNc1nc(-c2ccccc2)c2cc(Br)ccc2n1)c1ccc(S(=O)(=O)N2CCOCC2)cc1", "max response, negative = inhibition": "inactive: -2.83%"}
{"smiles": "CC(=O)N1[C@H](Cc2ccccc2)C=C[C@]1(C)C(=O)NCCc1c[nH]c2ccccc12", "Potency": "inconclusive: 39.8 µM [activator, single point]"}
{"smiles": "CC1=C(c2ccc(Cl)cc2)S(=O)(=O)N=C1N1CCN(c2cccc(C(F)(F)F)c2)CC1", "max response, negative = inhibition": "inactive: -21.7%"}
{"smiles": "O=C(N/N=C/c1ccc(OC(=O)c2ccc3c(c2)OCO3)cc1)c1cncc(Br)c1", "Potency": "inconclusive: 20 µM [inhibitor, single point]"}
{"smiles": "COC(=O)c1cc2c(ccn2-c2ccc(F)cc2)n1Cc1ccc(C#N)cc1", "Potency": "inconclusive: 39.8 µM [inhibitor, single point]"}
{"smiles": "COc1ccc(/C(O)=C/c2nc3ccccc3n(-c3ccccc3)c2=O)cc1", "Potency": "inconclusive: 31.6 µM [inhibitor, single point]"}
{"smiles": "Cc1ccc2nc(/C(C#N)=C\\c3ccc([N+](=O)[O-])o3)[nH]c2c1", "Potency": "inconclusive: 39.8 µM [inhibitor, single point]"}
{"smiles": "Cc1ccc2nc(Cl)c(CN(C(=O)c3cnccn3)C3CCCCC3)cc2c1", "Potency": "inconclusive: 39.8 µM [activator, single point]"}
